Measurements published in PubChem BioAssay AID1487 (National Center for Advancing Translational Sciences (NCATS), 2009).
The campaign covered roughly 200,000 compounds. About 25 (0.01%) were called active. Another 23% or so got no clear call; they are omitted. Calls follow the shape of the dose curve; as a rule, active = well fitted inhibition curve with a large enough effect in the signal ratio, with a control signal flat (not every such curve was filed as active); inconclusive = small, poorly fitted or top-dose-only effect, or effect the other way, or a change in a side signal; inactive = flat fitted curve, though single readings scatter; the % refers to the signal ratio. Only a part is listed here, and it is no random draw.

Assay: qHTS Assay for Modulators of Lamin A Splicing
Conditions: HeLa LMNA splicing GFP/RFP minigene ratio, 48 h; series mostly up to 46.1 µM; ratio change, negative = inhibition: at the top concentration
Description: NCGC Assay Overview: Hutchinson-Gilford Progeria Syndrome (HGPS) is a pediatric premature aging disease caused by a spontaneous mutation in the lamin A/C (LMNA) gene. The mutation activates a cryptic splice site in the LMNA pre-mRNA which results in production of a pre-lamin A protein that cannot be processed properly. The mutant protein accumulates in the nucleus and negatively affects numerous cellular functions. Correction of the splicing defect in HGPS patient cells using a targeted oligonucleotide (exo11) leads to reversal of the cellular disease phenotypes. To identify small molecule modulators of aberrant LMNA splicing, a homogenous assay was constructed in HeLa cells that used a GFP containing minigene to report on correction of aberrant splicing in lamin A and a RFP (DsRed2) to report on cell viability, uniformity and nonspecific effects on the assay signal. This assay was adapted to laser-scanning microplate cytometry (Acumen, TTP Labtech) where miniaturization of the assay to a 1,536-well plate format was possible. References: Bowen, W. P.; Wylie, P. G. Application of Laser-Scanning Fluorescence Microplate Cytometry in High Content Screening. Assay Drug Dev Technol 2006;4:209-221. Scaffidi P, Misteli T. Reversal of the cellular phenotype in the premature aging disease Hutchinson-Gilford progeria syndrome. Nat.
NCGC Assay Protocol Summary: Reagents/Controls: Stable clones expressing DsRed2 and lamin A-EGFP were generated by Cell and Molecular Technologies in S3 HeLa cells. HeLa cells were prepared for the assay when they were 70-90% confluent. The cells were counted and resuspended in Opti-MEM I (no phenol red; Gibco), 2% FBS, 1% penicillin/ streptomycin (Gibco) at concentration of 120 cells/uL concentration. The suspension was passed through a Falcon basket filter with pore size 40um (Beckton Dickson). Control titrations: column […] 1536-well plate contained a sixteen point titration (1:2 dilutions) in duplicate of ancitabine (Sigma: A8598) beginning at 40 uM final concentration. Column 2 contained a sixteen point titration (1:2 dilutions) of cycloheximide beginning at 1.4 mM final concentration. Column 3 contained ancitabine at 40 uM and column 4 contained was the vehicle control (0.5% DMSO final concentration). Assay Steps: 5 uL of HeLa cells were plated in Aurora LoBase black clear bottom (cyclic-olefin polymer) 1536-well plates at a final density of 600 cells/well. Controls and library compounds were added with a 1536-well pin array using the Kalypsys pin-tool. The plates were then incubated for 48 hrs in a cell-culture incubator (37 °C; 5% CO2, 98% humidity). Following incubation the plates were read on the Acumen Explorer using the 488 nm laser. Data was collected on objects between 10 and 100 um in size. Cell objects were defined by a 15 um width x 10 um depth filter. The ratio of the total object intensity in PMT1 (500-530 nm emission; GFP) over PMT3 (575-640 nm emission; RFP) was calculated for analysis. Keywords: NIH Roadmap, MLSCN, MLI, MLSMR, qHTS, NCGC, lamin A, Progeria, RNA splicing.
% is scaled to controls: 0 for no effect and ±100 for the full control effect; potency is read from the fitted curve at half-maximal effect.

Row | SMILES | ratio change, negative = inhibition | Potency
1 | N#C/C(=C(/O)CCl)c1nnc2n1CCCCC2 | inactive: 43.1% [at 46 µM] | 
2 | CCCC(=O)Nc1ccc(OCC(O)CNC(C)C)c(C(C)=O)c1 (configuration not stated) | inactive: 2.08% | 
3 | C/C(CCN1CCCCc2nc(C)c(C)cc21)=N\O[C@H](C)c1cn([C@H](CO)Cc2ccccc2)nn1 | inactive: 1.83% | 
4 | C[C@@H](C(=O)O)[C@@H]1C[C@@]1(C)[C@@H](NC(=O)OCc1ccccc1)c1ccccc1 | inactive: 4.65% | 
5 | COc1ccc(-c2nc(CCNC(=O)c3ccc(Br)o3)cs2)cc1 | inactive: -21.3% [at 46 µM] | 
6 | Cc1ccc(C2=N/C(=C/c3cccs3)C(=O)N2Nc2ccccc2)cc1 | inactive: -11.2% | 
7 | Cn1c(=O)c2c(ncn2CC(O)CO)n(C)c1=O (configuration not stated) | inactive: -1.2% | 
8 | CN(C)c1ccc(-c2nc(N(C)C)c3ccccc3n2)cc1 |  | active: 12.6 µM
9 | CC(C)C[C@H](NC(=O)[C@@H]1O[C@H]1C(=O)O)C(=O)NCCCCN=C(N)N | inactive: -13.6% | 
10 | Cc1cccc(N=C2NC(=O)/C(=C\c3cccs3)S2)c1 | inactive: -17.8% | 
11 | CCN1CCC[C@H]1CNC(=O)c1cc(S(N)(=O)=O)ccc1OC |  | inactive
12 | Nc1ncnc2c1ncn2[C@H]1C[C@H](O)[C@@H](CO)O1 | inactive: -2.55% | 
13 | N=S(=O)(O)Cc1noc2ccccc12 | inactive: -11.8% | 
14 | O=C(O)c1cc(=O)c2c(OCC(O)COc3cccc4oc(C(=O)O)cc(=O)c34)cccc2o1 |  | inactive
15 | C=CCc1ccccc1OCC(O)CNC(C)C (configuration not stated) | inactive: -8.71% | 
16 | CN(C)c1ccc(/C=C2\C(=O)Nc3ccccc32)cc1 |  | active: 28.2 µM
17 | O=C(CN1CCN(c2ccc(Cl)cc2)CC1)Nc1ccc(F)c(F)c1 | inactive: 22.2% | 
18 | CN(C)CCC(c1ccccc1)c1ccccn1 (configuration not stated) |  | inactive
19 | COc1c(O)cc2c(c1O)C1OC(CO)C(O)[C@H](O)[C@H]1OC2=O (some centres not stated) | inactive: -3.34% | 
20 | CCN(CC)C(=O)N1CCN(C)CC1 | inactive: 19.8% [at 46 µM] | 
21 | Nc1ccc(N=Nc2ccccc2)c(N)n1 | inactive: -5.41% | 
22 | CCCC(C(=O)OCCN(CC)CC)(c1ccccc1)c1ccccc1 | inactive: -23% | 
23 | COc1ccc(C(C)n2c(C)c3c(C)nnc(C)c3c2C)cc1 (configuration not stated) | inactive: 9.2% | 
24 | COc1ccc2c(C=Nc3c(C)n(C)n(-c4ccccc4)c3=O)c(O)n(Cc3ccco3)c(=O)c2c1 | inactive: -4.59% | 

Row | SMILES | ratio change, negative = inhibition | Potency
25 | COCCCNC(=O)C1CCC(CNS(=O)(=O)c2ccc(OC)cc2)CC1 (configuration not stated) | inactive: 20.4% [at 46 µM] | 
26 | CN(C)CCCC1(c2ccc(F)cc2)OCc2cc(C#N)ccc21 (configuration not stated) |  | inactive
27 | CN(C)CCC(c1ccc(Cl)cc1)c1ccccn1 (configuration not stated) |  | inactive
28 | O=C(O)c1cc(-c2ccco2)nc2ccc(Br)cc12 | inactive: 16.3% | 
29 | Cc1ccc(C(=O)/C=C\C(=O)c2ccc(C)cc2)cc1 | inactive: -0.927% | 
30 | O=C(NCC1CCCCN1)c1cc(OCC(F)(F)F)ccc1OCC(F)(F)F (configuration not stated) | inactive: -0.235% | 
31 | CCc1cccc(CC)c1NC(=O)CSc1nc2ccc(N3C(=O)C4C(C3=O)[C@H]3C=C[C@@H]4C3)cc2s1 (some centres not stated) | inactive: -13% | 
32 | CCOC(=O)C1=C(C)NC(C)=C(C(=O)OC)C1c1cccc([N+](=O)[O-])c1 (configuration not stated) |  | inactive
33 | CC(CN1c2ccccc2Sc2ccccc21)N(C)C (configuration not stated) | inactive: -1.91% | 
34 | CC1(C)S[C@H]2C(NC(=O)[C@@H](N)c3ccc(O)cc3)C(=O)N2[C@@H]1C(=O)O (some centres not stated) | inactive: 0.39% | 
35 | Cc1ccc(CCNC(=O)CCSCc2ccc(Cl)cc2)cc1 | inactive: 2.25% | 
36 | O=C(NN1C(=O)C2C3c4ccccc4C(c4ccccc43)C2C1=O)c1ccccc1 (configuration not stated) | inactive: -18.6% | 
37 | OC(CCN1CCCCC1)(c1ccccc1)c1ccccc1 |  | inactive
38 | CC(C)NNC(=O)c1ccncc1 | inactive: -4.54% | 
39 | O=C1c2cccc(O)c2C(=O)c2c(O)cccc21 | inactive: 0.537% | 
40 | COc1ccc(-c2nc3ccccc3s2)cc1NC(C)=O | inactive: -16.7% [at 46 µM] | 
41 | CN1CCN2c3ccccc3Cc3ccccc3C2C1 (configuration not stated) |  | inactive
42 | CC(C)C1=CC2=CCC3[C@@](C)(CCC[C@@]3(C)C(=O)O)C2CC1 (some centres not stated) | inactive: -8.06% | 
43 | CN(C)CC[C@@H](c1ccccc1)c1ccccn1 | inactive: -5.77% | 
44 | CCCCN(C(=O)Nc1ccc(Cl)cc1)C1CCN(C(C)=O)CC1 | inactive: 8.9% | 
45 | C[N+](C)(C)CCOC(N)=O | inactive: -6.41% | 
46 | COC(=O)[C@H]1C[C@@H]1[C@H](NC(=O)c1ccccc1)c1ccccc1 | inactive: 6.01% | 
47 | CC(NCCc1ccc(O)cc1)C(O)c1ccc(O)cc1 (configuration not stated) | inactive: -1.78% | 
48 | N=c1nc(N2CCCCC2)cc(N)n1O |  | inactive

Row | SMILES | ratio change, negative = inhibition | Potency
49 | Clc1ccc(C(c2ccccc2Cl)C(Cl)Cl)cc1 (configuration not stated) | inactive: -10.6% | 
50 | Nc1[nH]c(=O)ncc1F | inactive: -3.72% | 
51 | NCCCS(=O)(=O)O | inactive: -2.74% | 
52 | CC(=C/c1ccccc1)/C=N/n1cnnc1 | inactive: 41.4% | 
53 | C[C@@H](C(=O)Nc1ccc2ccccc2c1)[C@@H]1C[C@@]1(C)[C@@H](NC(=O)c1cccnc1)c1ccccc1 | inactive: -20.7% | 
54 | OC(CCN1CCCC1)(c1ccccc1)C1CCCCC1 (configuration not stated) | inactive: -3.25% | 
55 | COC(=O)[C@H]1[C@H]2C[C@H]3c4[nH]c5ccccc5c4CCN3C[C@H]2CC[C@@H]1O | inactive: -12.5% | 
56 | NC(N)=NC(N)=Nc1ccccc1 | inactive: 4.51% | 
57 | O=C(NCCO)/C(=C/c1ccc2c(c1)OCO2)NC(=O)c1ccc(Br)cc1 | inactive: -14.6% [at 46 µM] | 
58 | O=C1N=C(O)CN1/N=C/c1ccc(-c2ccc([N+](=O)[O-])cc2)o1 | inactive: -23.4% | 
59 | CCN1CCCC1CNC(=O)c1cc(S(N)(=O)=O)ccc1OC (configuration not stated) | inactive: -6.32% | 
60 | O=C(O)c1cc2cc(F)ccc2[nH]1 |  | inactive
61 | Cc1ccc(C(=O)N/C(=C\c2cccs2)C(=O)NCCc2c[nH]c3ccccc23)cc1 | inactive: -18.5% | 
62 | CN(C)CCCO[C@H]1C([C@H](O)CO)O[C@@H]2OC(C)(C)O[C@@H]21 (some centres not stated) | inactive: -18.1% | 
63 | CCC[C@@H]1C[C@@H](C(=O)N[C@@H]([C@H]2O[C@H](SC)[C@H](O)[C@@H](O)[C@H]2O)[C@@H](C)O)N(C)C1 | inactive: -29.5% | 
64 | Nc1ccn(C2OC(CO)C(O)C2O)c(=O)n1 (configuration not stated) | inactive: -9.96% | 
65 | COC(=O)/C(=C1/Oc2ccc(C(C)(C)C)cc2S1)C(F)(F)F | inactive: -13.5% | 
66 | C[C@@H]1CCC[C@H](C)N1NC(=O)c1ccc(Cl)c(S(N)(=O)=O)c1 | inactive: -15% | 
67 | Nc1ccc(S(=O)(=O)Nc2nccs2)cc1 | inactive: -7.66% | 
68 | O=C(NC[C@@H]1CCCCN1)c1cc(OCC(F)(F)F)ccc1OCC(F)(F)F | inactive: -11% | 
69 | CC(NC(=O)c1cc2ccccc2o1)c1ccccc1 (configuration not stated) | inactive: 3.22% [at 46 µM] | 
70 | Cc1cccc(NC(=O)CSc2nc3ccccc3c3nc(CCc4c(C)n[nH]c4C)nn23)c1 | inactive: -2.35% | 
71 | CC1(C)SC2C(NC(=O)COc3ccccc3)C(=O)N2C1C(=O)O (configuration not stated) | inactive: 11.8% [at 46 µM] | 
72 | COc1ccc(Cl)cc1C(=O)NCCc1ccc(S(=O)(=O)NC(=O)NC2CCCCC2)cc1 | inactive: -18.3% | 
